Values joined by “and” are separate entries in the source; they are usually repeats but may differ in a detail not shown here. Equal values may be shown once. Hit rate of the full screen: of about 350,000 compounds, about 31,000 (8.9%) were called active. The shares of active, inactive and inconclusive entries below differ from those in the screen. Calls come from the whole dose curve; as a rule, active = well fitted inhibition curve with a large enough effect; inconclusive = small, poorly fitted or top-dose-only effect; inactive = no such curve, though single readings can be large or run the other way. Potencies beside an inconclusive call are fits to weak or partial responses and may not hold up. Some structures have more than one record in an assay (separate samples or runs), and their calls can disagree.
target: Histone-lysine N-methyltransferase EHMT2 (Homo sapiens) (UniProt Q96KQ7); assay: qHTS Assay for Inhibitors of Histone Lysine Methyltransferase G9a; conditions: G9a H3K9 monomethylation, AlphaScreen, 2 h; activity, negative = inhibition: at 59 µM (top of the series) unless noted; note: nearly all actives have a fitted effect of over 75% in size
Chain of UniProt Q96KQ7 (Q96KQ7 whole entry, looked up): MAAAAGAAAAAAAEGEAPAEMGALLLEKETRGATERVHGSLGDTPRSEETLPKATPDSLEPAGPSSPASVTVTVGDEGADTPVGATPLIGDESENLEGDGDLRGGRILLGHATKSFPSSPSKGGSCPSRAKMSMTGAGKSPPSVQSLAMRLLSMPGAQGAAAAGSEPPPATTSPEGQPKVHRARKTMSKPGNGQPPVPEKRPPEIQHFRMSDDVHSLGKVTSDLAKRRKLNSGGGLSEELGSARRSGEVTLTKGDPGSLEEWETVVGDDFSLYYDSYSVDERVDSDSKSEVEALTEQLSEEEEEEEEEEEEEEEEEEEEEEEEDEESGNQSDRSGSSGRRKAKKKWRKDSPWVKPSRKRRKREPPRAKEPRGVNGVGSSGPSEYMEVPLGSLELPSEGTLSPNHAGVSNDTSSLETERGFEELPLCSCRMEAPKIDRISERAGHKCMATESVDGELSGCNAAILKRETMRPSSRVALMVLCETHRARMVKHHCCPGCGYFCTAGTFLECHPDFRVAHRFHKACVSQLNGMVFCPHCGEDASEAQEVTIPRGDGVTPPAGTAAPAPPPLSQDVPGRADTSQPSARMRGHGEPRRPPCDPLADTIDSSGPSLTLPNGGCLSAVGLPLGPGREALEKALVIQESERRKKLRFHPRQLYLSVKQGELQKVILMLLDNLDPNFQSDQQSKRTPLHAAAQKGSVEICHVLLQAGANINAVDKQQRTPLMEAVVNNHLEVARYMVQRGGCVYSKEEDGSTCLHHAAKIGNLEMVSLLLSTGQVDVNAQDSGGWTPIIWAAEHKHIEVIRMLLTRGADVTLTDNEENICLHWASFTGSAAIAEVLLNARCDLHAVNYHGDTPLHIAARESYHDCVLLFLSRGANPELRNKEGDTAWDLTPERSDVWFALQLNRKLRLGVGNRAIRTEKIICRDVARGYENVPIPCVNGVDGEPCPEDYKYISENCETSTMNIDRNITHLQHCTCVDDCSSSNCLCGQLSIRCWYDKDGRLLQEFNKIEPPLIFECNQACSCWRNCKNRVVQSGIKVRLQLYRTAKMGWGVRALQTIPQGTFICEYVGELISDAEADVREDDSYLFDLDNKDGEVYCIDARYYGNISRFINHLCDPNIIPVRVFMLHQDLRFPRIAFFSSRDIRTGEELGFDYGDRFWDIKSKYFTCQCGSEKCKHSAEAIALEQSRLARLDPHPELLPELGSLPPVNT
Method in brief: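 Methyltransferase reactions run at room temperature for 2 h (20 nM enzyme, 500 nM biotin-H3K9 peptide, 20 uM SAM) after a 15 min compound preincubation; product detected by AlphaScreen beads and anti-H3K9me1 antibody.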
% is set by controls: 0 for no effect and ±100 for the full control effect; potency is the fitted concentration of half-maximal effect; tags give direction and shape of the fitted curve.

SMILES | Potency | activity, negative = inhibition
CC(=O)c1nn(-c2ccccc2)cc1C(=O)c1cccc(Br)c1 | inconclusive: 1 µM [inhibitor, partial curve, poor fit] | –
O=C1c2ccccc2C(=O)N1CC#CCN1CCN(C(c2ccccc2)c2ccccc2)CC1 | – | inconclusive: -94.4% [inhibitor]
COc1cc(OC)cc(C(=O)NC2CCSc3ccccc32)c1 (configuration not stated) | inconclusive: 25.1 µM [inhibitor, partial curve, poor fit] | –
O=C(/C=C/c1cccc([N+](=O)[O-])c1)NCC1CCCO1 (configuration not stated) | inconclusive: 20 µM [inhibitor, partial curve, poor fit] | –
COc1ccc(C(=O)NC(=S)Nc2ccc(N3CCCC3)cc2)cc1 | inconclusive: 2 µM [inhibitor, full curve] | –
O=C(CSc1ccc2nnc(-c3cccnc3)n2n1)Nc1cccc(F)c1 | inconclusive: 39.8 µM [inhibitor, partial curve] | –
O=C(Nc1ccccc1)N(CCN1CCOCC1)Cc1cccc(Cl)c1 | – | inactive: -3.05% [at 102 µM]
Cc1ccc(S(=O)(=O)n2ccc3c(OCCOCCNCc4ccc(F)cc4)cccc32)cc1 | inconclusive: 50.1 µM [inhibitor, partial curve, poor fit] | –
Cc1oc(-c2ccccc2F)nc1Cn1c(SCc2ccccc2F)nc2ccncc21 | active: 12.6 µM | –
CCOc1cc(N2C(=O)CC3CS(=O)(=O)CC32)c(OCC)cc1NC(=O)c1ccccc1 (configuration not stated) | – | inactive: -31.7% [at 2.33 µM]
COc1cc(CNC2CCCC2)cc(OC)c1OC | – | inactive: -0.747% [at 12.7 µM]
COc1ccc(-c2cc(NC(=O)c3cncn3-c3ccccc3)ccc2OC)cc1 | inconclusive: 89.1 µM [inhibitor, single point] | –
O=c1nc(N2CCCCC2)nc(Nc2ccccc2)[nH]1 | inconclusive: 89.1 µM [inhibitor, single point] | –
Nc1nn(-c2ccccc2)c(N)c1N=Nc1ccc2c(c1)OCO2 | inconclusive: 39.8 µM [inhibitor, single point] | –
CC1CCCC(C)N1C(=O)CSc1nnc(NC(=O)Cc2cccs2)s1 (configuration not stated) | inconclusive: 79.4 µM [inhibitor, single point] | –
CCN(CC)CCCNC(=O)c1cn(C)c2ccc(S(=O)(=O)N(C)C)cc2c1=O | inconclusive: 7.08 µM [inhibitor, partial curve, poor fit] | –
CC1CCCCN1c1nnc(NC(=O)c2cc(-c3ccc(Br)cc3)on2)s1 (configuration not stated) | – | inactive: 19.2%
COc1ccccc1C(=O)Nc1ccc(S(=O)(=O)Nc2nccs2)cc1 | inconclusive: 89.1 µM [inhibitor, single point] | –
CC(C)C(=O)Nc1ncc(C(F)(F)F)cc1Cl | – | inactive: 24.7% [at 2.33 µM]
C=CCN1C2CCCC1CC(NC(=S)Nc1cccc(OC)c1)C2 (configuration not stated) | inconclusive: 50.1 µM [inhibitor, partial curve] | –
O=C(CSc1ncnc2scc(-c3ccccc3)c12)N1CCN(Cc2ccc3c(c2)OCO3)CC1 | active: 44.7 µM | –
Cc1cc(C(=O)OCC(=O)c2cccs2)ccc1[N+](=O)[O-] | inconclusive: 22.4 µM [inhibitor, partial curve, poor fit] | –
COC(=O)c1nc(NNC(=O)c2ccccc2)sc1-c1ccccc1 | inconclusive: 79.4 µM [inhibitor, single point] | –
Cc1cc(C)nc(SCc2nc3nc(C)cc(C)n3c2Br)n1 | active: 50.1 µM | –

SMILES | Potency | activity, negative = inhibition
O=C(O)Cn1c(C(=O)Nc2nc(-c3ccccc3Cl)cs2)cc2ccccc21 | – | inactive: -27% [at 12.7 µM]
Cc1ccc(Cl)cc1NC(=S)N(CCN(C)C)C(C)c1ccccn1 (configuration not stated) | – | inactive: -26.1% [at 102 µM]
CC(=O)N(C)c1cccc(-c2ccc3nnc(C)n3n2)c1 | – | inactive: -2.42% [at 102 µM]
Cc1ccc(S(=O)(=O)c2c(O)c3ccc(C(=O)O)cc3[nH]c2=O)cc1 | inconclusive: 89.1 µM [inhibitor, single point] | –
COc1ccccc1-n1nc(C(=O)O)c2ccccc2c1=O | inconclusive: 2.82 µM [inhibitor, partial curve, poor fit] | –
Cc1cc(C(=O)CN2CCN(CC(=O)Nc3cccc(F)c3)CC2)c(C)n1C1CC1 | – | inactive: -8.68% [at 2.33 µM]
CCc1occc(=O)c1Oc1cc(NN2CCCCC2)c([N+](=O)[O-])cc1[N+](=O)[O-] | inconclusive: 89.1 µM [inhibitor, single point] | –
COc1ccc(NC(=O)c2cc(S(=O)(=O)N3CCCC3)ccc2OC)cc1 | inactive | –
Clc1ccc2c(c1)-c1nnc(Br)n1-c1ccccc1S2 | active: 10 µM | –
CCOC(=O)c1sc(-c2ccc(Cl)cc2)nc1O | – | inactive: 9.97% [at 102 µM]
COc1cccc(C(=O)Oc2c(Sc3ccc(C)cc3)c(C)nn2C(C)(C)C)c1OC | – | inactive: 56.4%
CCn1c(O)c(C=NC2CCCC(C)C2C)sc1=S (configuration not stated) | inconclusive: 39.8 µM [inhibitor, full curve] | –
O=C(c1ccco1)N(Cc1ccccc1)c1cccc([N+](=O)[O-])c1 | – | inactive: -47.8% [at 102 µM]
CCOc1ccc(NC(=O)c2cc(C)nc3c2c(C)nn3-c2ccc(C)cc2)cc1 | – | inactive: 0.563%
CCCN1C(=O)/C(=C/c2ccc(C)o2)SC1=Nc1ccc(OC)cc1 | inconclusive: 3.55 µM [inhibitor, single point] | –
O=S(=O)(Nc1ccc(-n2cccc2)cc1)c1ccc(F)cc1 | active: 50.1 µM | –
O=C(CCl)N1CCN(S(=O)(=O)Cc2ccccc2)CC1 | inconclusive: 0.282 µM [inhibitor, partial curve, poor fit] | –
Cc1cc(OCCn2ccnc2)ccc1C(C)C | active: 14.1 µM | –
O=C(NCCN1CCOCC1)NC1(C(F)(F)F)Oc2ccc(Cl)cc2O1 (configuration not stated) | active: 10 µM | –
O=C1COc2ccc(C(=O)CSc3nnc(Cc4cccs4)n3-c3ccccc3)cc2N1 | active: 79.4 µM | –
Cc1ccc2oc(=O)c3cnn(CC(=O)N4CCCCC4C)c3c2c1 (configuration not stated) | inconclusive: 25.1 µM [inhibitor, full curve, poor fit] | –
NC(=O)C1CCN(CC(=O)c2c[nH]c3ccc(F)cc23)CC1 | inconclusive: 25.1 µM [inhibitor, single point] | –
C=CCN1C(=O)C(CC(=O)O)SC1=Nc1cccc([N+](=O)[O-])c1 (configuration not stated) | – | inactive: -13% [at 102 µM]
COc1ccc(-c2nc(-c3ccccc3)[nH]c(=O)c2C#N)cc1 | – | inactive: 3.15% [at 102 µM]

SMILES | Potency | activity, negative = inhibition
CC1CCCN(c2nc3c(c(=O)n(C)c(=O)n3C)n2Cc2ccccc2)C1 (configuration not stated) | – | inactive: 3.21%
CNC(=O)/C(C#N)=c1\s/c(=C/C(=O)OC)c(=O)n1-c1ccccc1 | – | inactive: 13.2% [at 0.501 µM]
CCC(=O)c1ccc(OCC(=O)Nc2nc(-c3cccnc3)cs2)cc1 | active: 39.8 µM | –
COc1ccc(OC)c(C2/C(=C(/O)c3cnn(-c4ccccc4)c3C)C(=O)C(=O)N2CCN(C)C)c1 (configuration not stated) | inconclusive: 2.82 µM [inhibitor, partial curve, poor fit] | –
CCOc1ccccc1NC(=O)COC(=O)c1c(CC)noc1C | – | inactive: -26.6% [at 102 µM]
CCSc1nc2ccc(N3C(=O)C4C5C=CC(C5)C4C3=O)cc2s1 (configuration not stated) | active: 11.2 µM | –
O=C(c1ccc(NS(=O)(=O)c2ccc(F)cc2)cc1)N1CCCCCC1 | – | inactive: -42.4% [at 102 µM]
CC1(c2ccccc2Cl)NC(=O)N(CC(=O)N2c3ccccc3NC(=O)C2(C)C)C1=O (configuration not stated) | inconclusive: 8.91 µM [inhibitor, single point] | –
CNC(=O)c1c(NC(=O)c2cccc(N3C(=O)CCC3=O)c2)sc2c1CCCC2 | inconclusive: 89.1 µM [inhibitor, single point] | –
COc1cc(NC(=O)CSc2nc3ccccc3n2-c2ccccc2)c(C)cc1[N+](=O)[O-] | inconclusive: 8.91 µM [inhibitor, partial curve] | –
CS(=O)(=O)N1CCC2(CCCN(c3ncccn3)C2)CC1 | – | inactive: 3.14% [at 12.7 µM]
O=c1ccc2cc3c([nH]c4ccc(Br)cc43)oc-2c1O | inconclusive: 3.16 µM [inhibitor, partial curve, poor fit] | –
CCOC(=O)c1c(NC(=O)c2cc(-c3ccc(OC)c(OC)c3)on2)sc(C)c1C | – | inactive: -32.7%
COc1ccc(-c2noc3c2-c2nc(-c4ccccc4F)sc2CC3)cc1 | active: 22.4 µM | –
O=C(NC(=S)Nc1nc2c(s1)CSc1ccccc1-2)c1ccccc1 | active: 3.55 µM | –
O=C(COC(=O)/C=C/c1cccc(Cl)c1Cl)Nc1ccc2[nH]c(=O)[nH]c2c1 | inconclusive: 4.47 µM [inhibitor, single point] | –
O=C(N/N=C/C=C/c1ccco1)c1ccccc1Cl | inconclusive: 35.5 µM [inhibitor, single point] | –
Cc1ccn2c(Nc3ccc4c(c3)OCCO4)c(-c3ccccc3O)nc2c1 | active: 8.91 µM | –
O=C(c1ccc2c(=O)n3c(nc2c1)CCC3)N1CCCSC1=Nc1ccccc1 | inconclusive: 50.1 µM [inhibitor, partial curve, poor fit] | –
COc1ccc(NC(=O)N2CCC3(CC2)CCN(C(=O)c2csnn2)CC3)cc1 | – | inactive: -6.42% [at 12.7 µM]
O=C(OCc1nc2ccccc2s1)c1ccco1 | inconclusive: 4.47 µM [inhibitor, single point] | –
CCOc1cccc(CC(=O)N2CCc3c([nH]c4ccc(OC)cc34)C2c2ccc(F)cc2)c1OCC (configuration not stated) | inconclusive: 15.8 µM [inhibitor, partial curve] | –
CCCCc1nnc(NC(=O)c2cccc(S(=O)(=O)N3CCN(C)CC3)c2)s1 | – | inactive: -30% [at 102 µM]
O=C(COc1ccc(Cl)cc1)Nc1nnc(S(=O)(=O)N2CCCCCC2)s1 | inactive and active: 3.16 µM | –

— PubChem BioAssay AID504332 (National Center for Advancing Translational Sciences (NCATS), 2011)
